# Results: the BET-seq Pho4 binding data (Le et al. 2018)
# The other results are listed elsewhere or left out. The energies were worked out here from pooled read counts, against the library average; single values are noisy.
# Biological target: T1, Pho4 (S. cerevisiae) (UniProt P07270)
# T1 sequence: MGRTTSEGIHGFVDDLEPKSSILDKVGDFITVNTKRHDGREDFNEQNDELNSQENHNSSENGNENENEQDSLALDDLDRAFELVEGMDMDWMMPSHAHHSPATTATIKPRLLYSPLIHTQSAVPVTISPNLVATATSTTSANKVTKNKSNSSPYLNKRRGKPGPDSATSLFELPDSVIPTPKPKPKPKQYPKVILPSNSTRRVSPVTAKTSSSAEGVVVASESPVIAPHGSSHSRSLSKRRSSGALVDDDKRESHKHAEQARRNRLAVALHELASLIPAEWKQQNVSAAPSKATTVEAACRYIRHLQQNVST
# Assay: relative binding free energy (BET-seq); higher = weaker binding
# Conditions: reference: library average
row,Sequence,relative binding free energy
1,CCGGGCACGTGGGGCT,-0.24 kcal/mol
2,GGCAGCACGTGGGTAG,-0.16 kcal/mol
3,TGGGCCACGTGTATTG,-0.11 kcal/mol
4,CAGGTCACGTGCGGTT,0.1 kcal/mol
5,TAATGCACGTGGTGTG,-0.12 kcal/mol
6,ATTGTCACGTGTTACG,0.04 kcal/mol
7,TCTTGCACGTGCAGTG,0.08 kcal/mol
8,ACTATCACGTGTTTGG,0.02 kcal/mol
9,ATTAACACGTGATTAG,0.11 kcal/mol
10,TTAATCACGTGAGTGC,0.35 kcal/mol
11,CCCGGCACGTGGGGGT,-0.29 kcal/mol
12,TTACTCACGTGGTCGT,0.32 kcal/mol
13,CGATTCACGTGGCTTG,0.3 kcal/mol
14,TTGTTCACGTGATGAC,0.33 kcal/mol
15,AAGAGCACGTGGTGGC,-0.14 kcal/mol
16,TGAGTCACGTGAGGGG,0.26 kcal/mol
17,TACGTCACGTGGTGCT,0.01 kcal/mol
18,GGGTTCACGTGGGACG,0.29 kcal/mol
19,ATGTCCACGTGGGTGT,-0.3 kcal/mol
20,TTTTCCACGTGTGAGT,0.1 kcal/mol
21,CATGGCACGTGAGTTG,0.16 kcal/mol
22,GGTCGCACGTGAGGGA,-0.02 kcal/mol
23,CTTTGCACGTGTATGA,0.01 kcal/mol
24,GGGTTCACGTGTGAAC,0.3 kcal/mol
25,ATTGGCACGTGGGTGG,-0.14 kcal/mol

row,Sequence,relative binding free energy
1,CGCTACACGTGTGTGG,0.04 kcal/mol
2,GGCGTCACGTGATTTA,0.36 kcal/mol
3,CGGTGCACGTGTTGGG,0.08 kcal/mol
4,TAAGGCACGTGGGATA,-0.21 kcal/mol
5,AGTGCCACGTGCGTTT,-0.06 kcal/mol
6,AATGCCACGTGGGGTG,-0.26 kcal/mol
7,TGCAGCACGTGTGGTT,0.06 kcal/mol
8,TTCGTCACGTGGAGAG,0.07 kcal/mol
9,AAGGGCACGTGGCGGG,-0.17 kcal/mol
10,AGGTACACGTGGGCGT,0 kcal/mol
11,GATTCCACGTGTTATT,0.21 kcal/mol
12,TATAGCACGTGGAGAT,-0.13 kcal/mol
13,GAGGCCACGTGTAGTG,0.07 kcal/mol
14,TTGGACACGTGATTCG,0.21 kcal/mol
15,TTGGACACGTGGCGGC,0.03 kcal/mol
16,TTATTCACGTGTACGG,0.3 kcal/mol
17,CGGTACACGTGGGGAG,0.05 kcal/mol
18,GTGGACACGTGAGGCG,0.36 kcal/mol
19,CTAGGCACGTGGATTT,0.01 kcal/mol
20,TTATGCACGTGTCGTC,0.05 kcal/mol
21,ATGCTCACGTGCAGGG,0.15 kcal/mol
22,AGGAACACGTGGGTTT,0 kcal/mol
23,GTGTACACGTGTTGTC,0.12 kcal/mol
24,AGTGCCACGTGTTTTT,-0.02 kcal/mol
25,TTGTTCACGTGGAGAC,0.34 kcal/mol

row,Sequence,relative binding free energy
1,GTGAGCACGTGTGGAC,-0.01 kcal/mol
2,ATGTACACGTGTGCGG,0.02 kcal/mol
3,TTTGTCACGTGTTATC,0.19 kcal/mol
4,TGCGGCACGTGAATGC,0.24 kcal/mol
5,CCTGGCACGTGGGTGT,-0.21 kcal/mol
6,CGAGACACGTGTGGTA,-0.01 kcal/mol
7,GTGTACACGTGGGTTA,-0.08 kcal/mol
8,ACGGTCACGTGATAGG,0.17 kcal/mol
9,GAGGGCACGTGCTAGT,-0.19 kcal/mol
10,TTTTTCACGTGAAGTG,0.42 kcal/mol
11,TGAGTCACGTGGCTGG,-0.05 kcal/mol
12,GTGTCCACGTGGGGGC,-0.15 kcal/mol
13,GTTTGCACGTGTCGGC,0.11 kcal/mol
14,TGACTCACGTGGTGGG,0.2 kcal/mol
15,GGTGTCACGTGTGCTT,0.06 kcal/mol
16,GTGGTCACGTGCTTTA,0.22 kcal/mol
17,CGGAGCACGTGTGGGA,0.01 kcal/mol
18,CTTTGCACGTGATGGC,0.13 kcal/mol
19,GCTGTCACGTGAGTCT,0.51 kcal/mol
20,GGCGCCACGTGGCGGT,0.01 kcal/mol
21,AAGGGCACGTGTGGAA,-0.06 kcal/mol
22,CGTAGCACGTGGGTTC,-0.19 kcal/mol
23,GGTATCACGTGTATTA,0.22 kcal/mol
